Reference: the supplement of paper PMC8285479
Structures can show the parent of a compound that is named as a salt. ± gives the standard deviation of the averaged measurements. Whole data set: some 1,900 compounds, median “normalised cell viability (NPI; 0 = phenylarsine oxide control, 1 = DMSO control)” near 1, cut for the lowest 2% near 0.039. The list shows a part of the results.

Tested on: NCI-H1944
Assay: normalised cell viability (NPI; 0 = phenylarsine oxide control, 1 = DMSO control) (fraction of DMSO control); NCI-H1944 is a non-small cell lung cancer line; higher = more viable cells (less compound toxicity)
Settings: 6 days
[1] = glucocorticoid arm: hydrocortisone 2.75 uM co-treatment, compound 1 µM
[2] = glucocorticoid arm: hydrocortisone 2.75 uM co-treatment, compound 5 µM
[3] = glucocorticoid arm: hydrocortisone 2.75 uM pre-treated 2 days and continued, compound 1 µM
[4] = glucocorticoid arm: hydrocortisone 2.75 uM pre-treated 2 days and continued, compound 5 µM
[5] = glucocorticoid arm: vehicle, compound 1 µM
[6] = glucocorticoid arm: vehicle, compound 5 µM
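Note: CTB read-out in 384-well plates, mean of triplicate wells, normalised per plate against 1 µM phenylarsine oxide and 0.1% DMSO, compounds added 24 h after seeding.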

Row | SMILES | normalised cell viability [1] | normalised cell viability [2] | normalised cell viability [3] | normalised cell viability [4] | normalised cell viability [5] | normalised cell viability [6]
1 | COCCc1ccc(OCC(O)CNC(C)C)cc1 (racemic) [(±)-Metoprolol (+)-tartrate] | 0.9903 ± 0.006 | 0.9673 ± 0.0059 | 0.995 ± 0.0036 | 1.02 ± 0.073 | 0.9913 ± 0.0011 | 0.998 ± 0.012
2 | CN(C)CC/C=C1/c2ccccc2COc2ccc(CC(=O)O)cc21 [Olopatadine HCl] | 1.01 ± 0.022 | 1.03 ± 0.015 | 1.01 ± 0.01 | 1.02 ± 0.036 | 1.002 ± 0.0068 | 1.006 ± 0.0069
3 | O=C(O)C1=CCCN(CCON=C(c2ccccc2)c2ccccc2)C1 [NO-711 hydrochloride] | 1.003 ± 0.0058 | 0.994 ± 0.02 | 0.996 ± 0.015 | 1.03 ± 0.026 | 1.01 | 1.01 ± 0.015
4 | Nc1ncnc2n[nH]c(Nc3ccc(F)cc3)c12 | 0.9963 ± 0.0021 | 0.733 ± 0.029 | 1.03 ± 0.04 | 0.9867 ± 0.0078 | 0.994 ± 0.006 | 0.904 ± 0.017
5 | CN(C)Cc1ccc(S(=O)(=O)n2ccc(/C=C/C(=O)NO)c2)cc1 [Resminostat] | 0.941 ± 0.011 | 0.92 ± 0.018 | 0.961 ± 0.011 | 1.023 ± 0.0058 | 1.001 ± 0.0081 | 0.214 ± 0.026
6 | C[C@@H]1COC(Nc2ccc3ncnc(Nc4ccc(OCc5nccs5)c(Cl)c4)c3c2)=N1 | 0.988 ± 0.028 | 0.981 ± 0.022 | 0.9923 ± 0.005 | 0.998 ± 0.03 | 0.929 ± 0.014 | 0.886 ± 0.025
7 | Oc1cccc(-c2nc(N3CCOCC3)c3oc4ncccc4c3n2)c1 | 1.01 ± 0.015 | 1.04 ± 0.021 | 0.997 ± 0.025 | 1.01 ± 0.02 | 1.01 | 1.02 ± 0.026
8 | C#CCn1c(=O)c2c(ncn2C)n(C)c1=O [3,7-Dimethyl-1-propargylxanthine] | 0.987 ± 0.013 | 0.98 ± 0.0087 | 0.991 ± 0.0017 | 0.96 ± 0.033 | 0.9793 ± 0.0031 | 0.985 ± 0.0056
9 | CC(N)(Cc1ccc(O)c(O)c1)C(=O)O (racemic) [(±)-3-(3,4-dihydroxyphenyl)-2-methyl-DL-alanine] | 1.01 | 1.01 ± 0.068 | 1.01 ± 0.017 | 0.99 ± 0.018 | 1.023 ± 0.0058 | 0.986 ± 0.06
10 | CN(C)CCC(c1ccc(Br)cc1)c1ccccn1 (single isomer, unassigned; (+)) [(+)-Brompheniramine maleate] | 1.01 ± 0.017 | 1.023 ± 0.0058 | 1.05 ± 0.04 | 1.03 ± 0.021 | 1.006 ± 0.0069 | 1.02 ± 0.011
11 | C=CS(=O)(=O)NC1CCN(C(=O)CNc2cc(I)c(Cl)cc2OC)CC1 [K-Ras(G12C) inhibitor 9] | 1.03 ± 0.01 | 1.07 ± 0.029 | 1.04 | 1.04 ± 0.025 | 0.993 ± 0.0036 | 0.996 ± 0.014
12 | CCN(CC)CCCCNc1ncc2cc(-c3cc(OC)cc(OC)c3)c(NC(=O)NC(C)(C)C)nc2n1 | 0.9727 ± 0.0096 | 0.813 ± 0.061 | 0.946 ± 0.02 | 0.829 ± 0.044 | 0.9957 ± 0.0045 | 0.98 ± 0.01
13 | Cc1ccc([N+](=O)[O-])cc1S(=O)(=O)N(C)/N=C/c1cnc2ccc(Br)cn12 | 0.025 ± 0.0023 | 0.0304 ± 0.0032 | 0.0674 ± 0.0086 | 0.0802 ± 0.022 | 0.0104 ± 0.005 | 0.00623 ± 0.0011
14 | COc1cc(-c2ccc(=O)[nH]n2)ccc1OC(F)F [Zardaverine] | 1.01 ± 0.01 | 1.03 ± 0.025 | 1.04 ± 0.055 | 1.04 ± 0.011 | 1.01 ± 0.01 | 1.017 ± 0.0058
15 | CC[N+](CC)(CC)CC(=O)Nc1c(C)cccc1C [Lidocaine N-ethyl bromide] | 1.002 ± 0.0067 | 0.994 ± 0.023 | 1 ± 0.012 | 1.01 ± 0.062 | 1.003 ± 0.0061 | 1.01 ± 0.01
16 | O=c1[nH]c(=O)n([C@H]2C[C@H](O)[C@@H](CO)O2)cc1Br [5-Bromo-2'-deoxyuridine] | 1.01 ± 0.01 | 1.073 ± 0.0058 | 1.001 ± 0.009 | 1.05 ± 0.021 | 0.98 ± 0.011 | 1
